Screen size: about 48,000 compounds; about 120 (0.25%) were called active. Roughly 4% stayed inconclusive and do not appear here. Calls come from the whole dose curve; as a rule, active = well fitted activation curve with a large enough effect; inconclusive = small, poorly fitted or top-dose-only effect, or another doubt; inactive = no such curve, though single readings can be large or run the other way. The list shows a part of the results.
Assay: Primary qHTS for Identification of Small Molecule Activators of Huntingtin-Antisense Promoter Activity; note: nearly all actives have a fitted effect of over 55% in size
Conditions: HEK293 HTT-AS promoter firefly luciferase reporter, 24 h; series mostly up to 57.5 µM; activity change, positive = activation: at the top concentration
How it was run: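 HEK293 Fluc reporter, 2,500 cells/well, 24 h pre-culture; cpds up to 57.5 uM final, 24 h 37 degrees C; Dual-Glo, 10 min RT; normalized vehicle = 0%, zero RLU = -100%.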

Activity change, positive = activation, inactive:
COc1ccccc1NC(=O)c1oc2ccccc2c1NC(=O)C1CCCCC1 13.6%
CC1C(=O)N2CCCc3cc(S(=O)(=O)N4CCC(C(N)=O)CC4)cc1c32 (centres undefined) 6.21%
Cc1ccc2cc(CN(C(=O)c3cccc(Cl)c3)c3ccccc3)c(=O)[nH]c2c1 2.31%
CCCSCCCNC(=O)c1ccc2c(c1)sc1nc(-c3ccc(OCC)cc3)cn12 -1.9%
COc1ccccc1Nc1nn2c(=O)c3ccc(C(=O)NCCC4=CCCCC4)cc3nc2s1 -87.9%
COc1cccc(CNC(=O)c2cnc(N3CCCCC3)c3ccccc23)c1 -16.8%
O=C(NCc1ccccc1F)C1CCN(c2nn3cc(-c4ccc(F)cc4)nc3s2)CC1 26.5%
CN1c2ccc(Cl)cc2-c2nc(SCC(=O)NCc3ccccc3)ncc2S1(=O)=O -29.8%
COc1ccc(Cn2ccnc2SCC(=O)NCc2ccco2)cc1 1.47%
Cc1cccc(N2CCN(S(=O)(=O)c3ccc4c(c3)CC(=O)N4C)CC2)c1C 0%
CCN(CC)CCNC(=O)Cn1nc(C)c2c(C)n(-c3ccccc3)nc2c1=O 3.07%
CCn1c(=O)c2cc(C(=O)NCCCN3CCC(C)CC3)sc2c2ccccc21 -8.13%
COC(=O)c1ccccc1NC(=O)c1ccc2nc(CCc3ccccc3)oc2c1 5.77%
Cc1ccc(Cl)cc1NC(=O)CSc1nc2ccccc2nc1Cc1ccccc1 -6.3%
CCOc1ccc(-n2c(SCC(=O)NC3CCCCC3)nc3c([nH]c4ccccc43)c2=O)cc1 -7.99%
Cc1ccc(-n2c(=O)c3c(cnn3C)n(CC(=O)Nc3ccccc3C)c2=O)cc1 -6.77%
Cc1cccc(Cn2cc(S(=O)(=O)c3cccc(C)c3)c(=O)c3cc(F)c(N4CCOCC4)cc32)c1 -8.32%
COc1ccc2nc(C)cc(Nc3ccc(Cl)c(Cl)c3)c2c1 -55.7%
Cc1ccc(CNC(=O)CCCn2c(=O)[nH]c3ccc(Br)cc3c2=O)cc1 1.84%
CCCCn1c(=NC(=O)c2cc3ccccc3o2)c(C(=O)OCC)cc2c(=O)n3ccccc3nc21 13.3%
O=C(Cn1c(=O)oc2cc(S(=O)(=O)N3CCCCC3)ccc21)NCc1ccc(Cl)cc1 -35.6%
O=C(Oc1ccc(Cl)cc1)c1cc(-c2ccc3c(c2)OCCO3)on1 -6.9%
CCOc1cc2c(cc1OCC)C(CC(=O)O)N(C(=O)Nc1ccccc1C(F)(F)F)CC2 (centres undefined) -5.4%
Cc1cc(C)nc(-n2nc(C)c3c2NC(=O)CC3c2cccc(O)c2)n1 (centres undefined) -3.73%
Cc1cc2nn(-c3ccc(F)cc3)nc2cc1NC(=O)c1cccc2c(Cl)cccc12 13.5%
CCOC(=O)c1ccc2c(c1)N(Cc1ccc(F)cc1Cl)C(=O)c1ccccc1S2(=O)=O -24.9%
CCn1c(C)c(C)c2cc(C(=O)NCc3ccc(F)cc3)ccc21 -8.29%
COc1ccc(-n2cc(-c3ccccc3)c3c(Nc4ccc(OC)c(OC)c4)ncnc32)cc1 -14.1%
CCOC(=O)c1cn(CC(=O)Nc2ccc(OC)cc2OC)nn1 -3.51%
Fc1ccc(Nc2ncnc3onc(-c4ccc(Cl)cc4)c23)cc1Cl -23%
O=C(C1CCCN(S(=O)(=O)c2ccc(Br)s2)C1)N1CCN(c2ccccc2F)CC1 (centres undefined) -26.9%
COc1ccc(C)cc1NC(=O)NC(C)c1c(-n2cccc2)sc(C)c1C (centres undefined) -36.8%
CCN(CC)CCCNc1sc(S(=O)(=O)c2ccccc2)nc1S(=O)(=O)c1ccc(Cl)cc1 -5.89%
CCOC(=O)c1c(C)[nH]c(CCC(=O)NC(C)c2ccccc2)c1C (centres undefined) -2.74%
CCN(C(=O)c1sc2nc3n(c(=O)c2c1C)CCCCC3)c1ccc(OC)cc1 -8%
Cc1ccc(Cl)cc1NC(=O)Cn1c(=O)n(CCC(=O)NCc2ccc3c(c2)OCO3)c(=O)c2sccc21 -23.6%
CCCC(=O)Nc1nnc(S(=O)(=O)N2CCCCCC2)s1 -7.82%
COC(=O)C(NC(=O)CCc1c(C)nc2c(-c3ccccc3)c(C)nn2c1C)C(C)C (centres undefined) -34%
CC(C)Cc1ccc(S(=O)(=O)N2CCN(Cc3noc(CCC(=O)N4CCCCC4)n3)CC2)cc1 -31.2%
CC1=C(c2ccc(F)cc2)S(=O)(=O)N=C1N1CCC(C(=O)NCCc2ccccc2C)CC1 -10.7%
COc1ccc(C2C(C(=O)Nc3ccccc3)=C(C)Nc3nc(SCC(=O)c4ccc(C)cc4)nn32)cc1 (centres undefined) -5.91%
Cc1c(C(=O)Nc2ccc(-n3c(C)nc4ccccc4c3=O)cc2)cccc1[N+](=O)[O-] -18.7%
Cc1ccc(CNC(=O)c2ccc(CSCc3cccc(C)c3)o2)cc1 -18.3%
Cc1cc(C)cc(-n2c(SCC(=O)N3CCOCC3)nc3c([nH]c4ccccc43)c2=O)c1 -2.26%
COc1cccc(-c2nnc(-c3ccccc3NC(=O)c3ccc(F)cc3F)o2)c1 -1.65%
Cc1ccc(CCNS(=O)(=O)c2c(C)nc3sc(C)c(C)n3c2=O)cc1 -5.55%
Cc1ccc(NS(=O)(=O)c2ccc3[nH]c4c(c3c2)CCCC4)cc1N(C)C -38.5%
CC1CCN(S(=O)(=O)c2ccc3c(c2)N(CC(=O)NCCc2ccccc2)C(=O)CO3)CC1 -5.17%
Cc1noc(-c2ccc(NC(C)c3ccccc3)c([N+](=O)[O-])c2)n1 (centres undefined) -8.93%
CCC(=O)N1CCc2cc(Br)cc(S(=O)(=O)N3CCN(c4ccccc4OC)CC3)c21 -7.42%
CCOC(=O)CC(=O)CSc1nc2ccsc2c(=O)n1Cc1ccccc1 -21.2%
Cc1ccc(CNC(=O)c2nc(SCc3ccccc3C)ncc2Cl)cc1 -14.3%
COc1ccc(-c2oc3c(CC=C(C)C)c(O)cc(O)c3c(=O)c2O)cc1 -22.1%
CC1(c2ccccc2)CC(C)(C)N(C(=O)c2cccc(Cl)c2)c2ccccc21 (centres undefined) -25.6%
O=C1C(Cl)=C(NCCN2CCOCC2)C(=O)c2ncccc21 -95.5%
COc1ccccc1NC(=O)c1ccc(CN2C(=O)C(C)=C(c3ccc(C)c(C)c3)S2(=O)=O)cc1 -16.5%
COc1ccc(C(=O)Nc2nnc(SCc3cc(=O)c4cc(C)cc(C)c4[nH]3)s2)cc1 0.587%
Cc1ccc(CNC(=O)CCCn2c(=O)c3ccccc3n(CC(=O)Nc3ccc(C)c(C)c3)c2=O)cc1 -4.23%
CCOc1ccc(CCNC(=O)CCCn2c(=O)c3cccn3c3ccccc32)cc1 -19.7%
COC(=O)NCC(c1cccnc1)N1CCN(c2ccc(F)cc2)CC1 (centres undefined) -11.6%
Cc1ccc(-n2ncc3c(NCCC4=CCCCC4)ncnc32)cc1 8.91%
Cc1ccc(Cl)cc1NC(=O)C(C)n1nc(-c2ccccc2)ccc1=O (centres undefined) -23.5%
Cn1c(=O)c2c(nc(SCC(=O)Nc3ccccc3F)n2Cc2ccc(Cl)cc2)n(C)c1=O -4.2%
CCc1ccccc1NC(=O)CCNS(=O)(=O)c1ccc2c(c1)CCN2C(=O)C1CC1 -9.61%
COc1ccc(C2=CC(c3ccccc3Cl)n3nc(-c4ccc(Cl)cc4)nc3N2)cc1 (centres undefined) -49%
Cc1ccc(Cl)cc1N1CCN(C(=O)Cn2cnc3sc(C)c(S(=O)(=O)N4CCC(C)CC4)c3c2=O)CC1 -38.6%
COC(=O)c1scc(-c2ccc(C)cc2)c1S(=O)(=O)N1CCN(c2ccc(C(C)=O)cc2)CC1 -24.9%
Cc1nc2nc(NCc3ccc(Cl)cc3)[nH]n2c(=O)c1Cc1ccccc1 3.89%
CCCn1c(CCC(=O)Nc2ccc(OCC)cc2)nc2cccnc21 -9.59%
CCN(CC)CCCCNc1ncc2c(n1)N(C)C(=O)N(c1c(Cl)c(OC)cc(OC)c1Cl)C2 -8.72%
CC1CCc2c(sc(NC(=O)C3c4ccccc4Oc4ccccc43)c2C#N)C1 (centres undefined) -41.7%
Cc1ccc(-n2c(=O)c3c(C)c(C)sc3n(CC(=O)NCc3ccccc3)c2=O)cc1C -10.6%
CCOC(=O)c1c(C)oc2nc(C)nc(NCc3ccc(F)cc3)c12 13.7%
CCN1CCC[C@H]1CNC(=O)c1cc(S(N)(=O)=O)ccc1OC 3.46%
COc1ccccc1N1CCN(CCCNC(=O)c2cnn(-c3cccc(Cl)c3)c2C2CCN(C(=O)OC(C)(C)C)CC2)CC1 -27.6%
Cc1ccc(CN2C(=O)C3(c4ccccc42)N(c2cccc(F)c2)C(=O)CS3(=O)=O)cc1 (centres undefined) -29.9%
CCOc1ccc(CNC(=O)Cn2cc3c(n2)-c2c(oc(C(=O)N4CCOCC4)c2C)CC3)cc1 -34.9%
Cc1ccccc1CN1CCC(CNc2ncnc3onc(-c4ccc(F)cc4)c23)CC1 -21.6%
CCOC(=O)c1c(C)c(-c2ccccc2)n(CC(=O)Nc2cc(C)ccc2OC)c1C -13.2%
COc1cc(NC(=O)NC(C)c2c(-n3cccc3)sc3c2CCCC3)cc(OC)c1OC (centres undefined) 0%
CC(=O)Nc1ccc2nc(-c3cc(C)ccc3C)[nH]c2c1 -0.265%
CCc1cccc(-n2nnc(-c3nsc(NC(=O)c4cccs4)n3)c2C)c1 24.9%
CCCCN(CC)CCNC(=O)c1cn(C)c(=O)c2c1c1ccccc1n2C 2.69%
Cc1ccc(OCc2ccc(-c3nc(C#N)c(NCc4cccnc4)o3)o2)cc1 -44.9%
CC1CCN(CCCC(=O)c2ccc(F)cc2)CC1 -8.04%
COc1ccccc1N1CCN(S(=O)(=O)c2c(C)sc3ncn(CC(=O)N(C)c4ccc(Cl)cc4)c(=O)c23)CC1 -17.9%
CCNC(=O)c1c(NC(=O)Cc2coc3cc(C)cc(C)c23)sc2c1CCCC2 -7.77%
Oc1c(C(c2ccccc2F)N2CCN(Cc3ccccc3)CC2)sc2nc(-c3ccco3)nn12 (centres undefined) -17.6%
Cc1c(C(=O)N2CCC(c3nc4ccccc4s3)CC2)oc2ccc(Cl)cc12 8.65% [at 11.5 µM, percent change from vehicle, -100% = no light]
Cc1ccc(Cl)cc1NC(=O)Cn1c(=O)oc2cc(S(=O)(=O)N3CCCC3)ccc21 -42.6%
Cc1ccc2c(CC(=O)Nc3ccc(S(=O)(=O)N4CCCCC4)cc3)coc2c1 -5.23%
CCOc1ccccc1N(C)C(=O)C1CCCN(c2ncnc3c2nc2n3CCCCC2)C1 (centres undefined) 2.3%
Nc1ccc(S(N)(=O)=O)cc1
Cc1cc(C)c2c(=O)nc(SCc3ccccc3C)n(C3CC3)c2n1 4.12%

Source: PubChem BioAssay AID1508624 (National Center for Advancing Translational Sciences (NCATS), 2021)
